# Measurements published in the supplement of paper PMC8728848.
# This is one part of the list.
# B1: BDCA-2 (Homo sapiens), Q8WTT0 (protein)
# chain: MVPEEEPQDREKGLWWFQLKVWSMAVVSILLLSVCFTVSSVVPHNFMYSKTVKRLSKLREYQQYHPSLTCVMEGKDIEDWSCCPTPWTSFQSSCYFISTGMQSWTKSQKNCSVMGADLVVINTREEQDFIIQNLKRNSSYFLGLSDPGGRRHWQWVDQTPYNENVTFWHSGEPNNLDERCAIINFRSSEEWGWNDIHCHVPQKSICKMKKIYI
# Columns and labels:
# Assay in all cases: glycan array binding signal (z-score within array); higher = stronger binding
# Conditions in all cases: glycan notation: IUPAC condensed, linker removed
# [1] = target: Gal(b1-4)GlcNAc(b1-2)Man(a1-3)[Gal(b1-4)GlcNAc(b1-2)Man(a1-6)][GlcNAc(b1-4)]Man(b1-4)GlcNAc(b1-4)[Fuc(a1-6)]GlcNAc
# Summary of the method: (§1)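 Glycan array data were curated from 3228 arrays in the Consortium for Functional Glycomics database and kept only where the protein sequence was available. Glycan names were converted to IUPAC-condensed notation, and columns mapping to the same glycan were averaged. The binding signal is a within-array Z-score, averaged across arrays of the same protein sequence at different concentrations or buffers and across linkers. Negative Z-scores can be read as non-binding.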
# [2] = target: Gal(b1-4)GlcNAc(b1-2)Man(a1-3)[GlcNAc(b1-2)Man(a1-6)]Man(b1-4)GlcNAc(b1-4)GlcNAc
# Summary of the method: as §1
# [3] = target: Gal(b1-4)GlcNAc(b1-2)Man(a1-3)[GlcNAc(b1-4)][Gal(b1-4)GlcNAc(b1-2)Man(a1-6)]Man(b1-4)GlcNAc(b1-4)GlcNAc
# Summary of the method: as §1
# [4] = target: Gal(b1-4)GlcNAc(b1-2)Man(a1-3)[Man(a1-6)]Man(b1-4)GlcNAc(b1-4)GlcNAc
# Summary of the method: as §1
# [5] = target: Gal(b1-4)GlcNAc(b1-2)Man(a1-6)Man(b1-4)GlcNAc(b1-4)GlcNAc
# Summary of the method: as §1
# [6] = target: Gal(b1-4)GlcNAc(b1-2)Man(a1-6)[GlcNAc(b1-2)Man(a1-3)]Man(b1-4)GlcNAc(b1-4)GlcNAc
# Summary of the method: as §1
# [7] = target: Gal(b1-4)GlcNAc(b1-2)Man(a1-6)[Man(a1-3)]Man(b1-4)GlcNAc(b1-4)GlcNAc
# Summary of the method: as §1
# [8] = target: Gal(b1-4)GlcNAc(b1-2)[Gal(b1-4)GlcNAc(b1-4)]Man(a1-3)[Gal(b1-4)GlcNAc(b1-2)Man(a1-6)]Man(b1-4)GlcNAc(b1-4)GlcNAc
# Summary of the method: as §1
# [9] = target: Gal(b1-4)GlcNAc(b1-2)[Gal(b1-4)GlcNAc(b1-4)]Man(a1-3)[Gal(b1-4)GlcNAc(b1-2)[Gal(b1-4)GlcNAc(b1-6)]Man(a1-6)]Man(b1-4)GlcNAc(b1-4)GlcNAc
# Summary of the method: as §1
# [10] = target: Gal(b1-4)GlcNAc(b1-2)[Gal(b1-4)GlcNAc(b1-4)]Man(a1-3)[GlcNAc(b1-4)][Gal(b1-4)GlcNAc(b1-2)Man(a1-6)]Man(b1-4)GlcNAc(b1-4)GlcNAc
# Summary of the method: as §1
# [11] = target: Gal(b1-4)GlcNAc(b1-2)[Gal(b1-4)GlcNAc(b1-4)]Man(a1-3)[GlcNAc(b1-4)][Gal(b1-4)GlcNAc(b1-2)[Gal(b1-4)GlcNAc(b1-6)]Man(a1-6)]Man(b1-4)GlcNAc(b1-4)GlcNAc
# Summary of the method: as §1
# [12] = target: Gal(b1-4)GlcNAc(b1-2)[Gal(b1-4)GlcNAc(b1-6)]Man(a1-6)[Gal(b1-4)GlcNAc(b1-2)Man(a1-3)]Man(b1-4)GlcNAc(b1-4)GlcNAc
# Summary of the method: as §1
# [13] = target: Gal(b1-4)GlcNAc(b1-2)[Gal(b1-4)GlcNAc(b1-6)]Man(a1-6)[Gal(b1-4)GlcNAc(b1-2)Man(a1-3)]Man(b1-4)GlcNAc(b1-4)[Fuc(a1-6)]GlcNAc
# Summary of the method: as §1
# [14] = target: Gal(b1-4)GlcNAc(b1-2)[Gal(b1-4)GlcNAc(b1-6)]Man(a1-6)[GlcNAc(b1-4)][Gal(b1-4)GlcNAc(b1-2)Man(a1-3)]Man(b1-4)GlcNAc(b1-4)GlcNAc
# Summary of the method: as §1
# [15] = target: Gal(b1-4)GlcNAc(b1-2)[Gal(b1-4)GlcNAc(b1-6)]Man(a1-6)[GlcNAc(b1-4)][Gal(b1-4)GlcNAc(b1-2)[Gal(b1-4)GlcNAc(b1-4)]Man(a1-3)]Man(b1-4)GlcNAc(b1-4)[Fuc(a1-6)]GlcNAc
# Summary of the method: as §1
# [16] = target: Gal(b1-4)GlcNAc(b1-3)Gal(b1-3)GalNAc
# Summary of the method: as §1
# [17] = target: Gal(b1-4)GlcNAc(b1-3)Gal(b1-3)GlcNAc
# Summary of the method: as §1
# [18] = target: Gal(b1-4)GlcNAc(b1-3)Gal(b1-4)Glc
# Summary of the method: as §1
# [19] = target: Gal(b1-4)GlcNAc(b1-3)Gal(b1-4)GlcNAc
# Summary of the method: as §1
# [20] = target: Gal(b1-4)GlcNAc(b1-3)Gal(b1-4)GlcNAc(b1-2)Man(a1-3)[Gal(b1-4)GlcNAc(b1-3)Gal(b1-4)GlcNAc(b1-2)Man(a1-6)]Man(b1-4)GlcNAc(b1-4)GlcNAc
# Summary of the method: as §1
# [21] = target: Gal(b1-4)GlcNAc(b1-3)Gal(b1-4)GlcNAc(b1-2)Man(a1-3)[Gal(b1-4)GlcNAc(b1-3)Gal(b1-4)GlcNAc(b1-2)Man(a1-6)]Man(b1-4)GlcNAc(b1-4)[Fuc(a1-6)]GlcNAc
# Summary of the method: as §1
# [22] = target: Gal(b1-4)GlcNAc(b1-3)Gal(b1-4)GlcNAc(b1-2)[Gal(b1-4)GlcNAc(b1-3)Gal(b1-4)GlcNAc(b1-6)]Man(a1-6)[Gal(b1-4)GlcNAc(b1-3)Gal(b1-4)GlcNAc(b1-2)Man(a1-3)]Man(b1-4)GlcNAc(b1-4)GlcNAc
# Summary of the method: as §1
binder,measurement,setting,value
B1,glycan array binding signal (z-score),[1],3.96
same,glycan array binding signal (z-score),[2],6.87
same,glycan array binding signal (z-score),[3],0.554
same,glycan array binding signal (z-score),[4],3.54
same,glycan array binding signal (z-score),[5],0.917
same,glycan array binding signal (z-score),[6],3.33
same,glycan array binding signal (z-score),[7],0.84
same,glycan array binding signal (z-score),[8],0.325
same,glycan array binding signal (z-score),[9],0.254
same,glycan array binding signal (z-score),[10],-0.113
same,glycan array binding signal (z-score),[11],-0.146
same,glycan array binding signal (z-score),[12],6.95
same,glycan array binding signal (z-score),[13],8.21
same,glycan array binding signal (z-score),[14],0.409
same,glycan array binding signal (z-score),[15],-0.068
same,glycan array binding signal (z-score),[16],-0.166
same,glycan array binding signal (z-score),[17],-0.179
same,glycan array binding signal (z-score),[18],-0.205
same,glycan array binding signal (z-score),[19],0.031
same,glycan array binding signal (z-score),[20],-0.062
same,glycan array binding signal (z-score),[21],-0.127
same,glycan array binding signal (z-score),[22],-0.145
